Test results taken from PubChem BioAssay (Tox21).
“And” between values parts separate entries of the source, which are not always exact repeats. Identical values can stand only once. Inconclusive results, whose numbers are uncertain, are shown with a selection of clear calls. For some assays here: Potencies beside an inconclusive call are fits to weak or partial responses and may not hold up. The source made the active and inactive calls. Unless noted, calls come from the whole dose curve.

What was measured:
[1] = molecular target: Estrogen receptor (Homo sapiens) (UniProt P03372); assay: qHTS assay to identify small molecule agonists of the estrogen receptor alpha (ER-alpha) signaling pathway (AID 743075); conditions: HEK293 ER-alpha-UAS-bla, beta-lactamase FRET ratio, 18 h; activation: at 70.1 µM (top of the series); note: potency is the fitted concentration of half-maximal effect; for activation: % is set by controls: 0 for no effect and ±100 for the full control effect
[2] = qHTS assay for small molecules that induce genotoxicity in human embryonic kidney cells expressing luciferase-tagged ATAD5 - cell viability (AID 651634); note: nearly all actives have a fitted effect of over 25% in size; note: potency is the fitted concentration of half-maximal effect
Procedure, shortened: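 HEK293T cells expressing luciferase-tagged ATAD5 were exposed to compound or DMSO for 15.5 hr at 37C, 5% CO2. Viability was then read as live-cell protease activity by CellTiter-Fluor fluorescence after 30 min at 37C.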

[3] = molecular target: Androgen receptor (Homo sapiens) (UniProt P10275); assay: qHTS assay to identify small molecule antagonists of the androgen receptor (AR) signaling pathway (AID 743035; active = well fitted inhibition curve with a large enough effect in the signal ratio in the repeat runs, not every such curve was filed as active; inconclusive = weak or mixed curves, or effect the other way; inactive = no such curve, though single readings can be large or run the other way; the % refers to the signal ratio; note: potency is the fitted concentration of half-maximal effect; for activity change, negative = inhibition: % is set by controls: 0 for no effect and ±100 for the full control effect); conditions: HEK293 AR-UAS-bla, R1881-stimulated, beta-lactamase FRET, 16 h; activity change, negative = inhibition: at 58.5 µM (top of the series) unless noted
Procedure, shortened: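 HEK293 cells stably carrying a UAS-driven beta-lactamase reporter (AR-UAS-bla GripTite) were plated for 4 h at 37C, then given compound and the agonist R1881 and incubated 16 h. Reporter activity was read by LiveBLAzer B/G FRET fluorescence after 2 h at room temperature.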

[4] = molecular target: Androgen receptor (Homo sapiens) (UniProt P10275); assay: qHTS assay to identify small molecule agonists of the androgen receptor (AR) signaling pathway (AID 743036; active = well fitted activation curve with a large enough effect in the signal ratio in the repeat runs, with a control signal flat, not every such curve was filed as active; inconclusive = weak or mixed curves, or effect the other way; inactive = no such curve, though single readings can be large or run the other way; the % refers to the signal ratio; note: potency is the fitted concentration of half-maximal effect); conditions: HEK293 AR-UAS-bla GripTite, beta-lactamase FRET ratio, 16 h; activation: at 62.4 µM (top of the series) unless noted
Procedure, shortened: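 Quantitative HTS of the Tox21 10K library in HEK293 cells bearing a stably integrated UAS-controlled beta-lactamase reporter. Compound exposure lasted 16 h at 37C. Reporter activity was detected by FRET substrate fluorescence after 2 h at room temperature.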

[5] = qHTS assay to identify small molecule antagonists of the thyroid receptor (TR) signaling pathway (AID 743065; active = well fitted curve in the direction sought with a large enough effect in the repeat runs; inconclusive = weak or mixed curves; inactive = no such curve, though single readings can be large; an effect the other way counts as inactive or inconclusive; note: nearly all actives have a fitted effect of over 55% in size; note: potency is the fitted concentration of half-maximal effect)
Procedure, shortened: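 Antagonism measured as loss of luciferase signal in GH3 cells stably carrying a TRE-luciferase reporter, co-treated with compound and T3 (1 nM final) for 23.5 h at 37 C. Viability was read in the same well by CellTiter-Fluor.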

[6] = qHTS assay for small molecule agonists of the p53 signaling pathway - cell viability (AID 651633); note: nearly all actives have a fitted effect of over 30% in size; note: potency is the fitted concentration of half-maximal effect
Procedure, shortened: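 Viability counter-read: CellTiter-Glo luminescence (30 min, room temperature) in the same p53RE-bla plates. These plates had been exposed to compounds for 16 h at 37 C.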

Aromatase (Homo sapiens) = Aromatase (Homo sapiens) (UniProt P11511); assay: qHTS assay to identify aromatase inhibitors (AID 743083; active = well fitted curve in the direction sought with a large enough effect in the repeat runs; inconclusive = weak or mixed curves; inactive = no such curve, though single readings can be large; an effect the other way counts as inactive or inconclusive; note: nearly all actives have a fitted effect of over 55% in size; note: potency is the fitted concentration of half-maximal effect)
[7] = qHTS assay to identify small molecule that activate the aryl hydrocarbon receptor (AhR) signaling pathway - cell viability counter screen (AID 743086; active = well fitted curve in the direction sought with a large enough effect in the repeat runs; inconclusive = weak or mixed curves; inactive = no such curve, though single readings can be large; an effect the other way counts as inactive or inconclusive; note: nearly all actives have a fitted effect of over 45% in size; note: potency is the fitted concentration of half-maximal effect)
Procedure, shortened: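 Cytotoxicity counter screen: CellTiter-Fluor signal (30 min, 37 C) in 4000 HepG2 cells/well carrying the DRE-luciferase reporter, following 24 h compound exposure at 37 C.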

[8] = qHTS assay for small molecules that induce genotoxicity in human embryonic kidney cells expressing luciferase-tagged ATAD5 (AID 651632; active = well fitted curve in the direction sought with a large enough effect in the repeat runs; inconclusive = weak or mixed curves; inactive = no such curve, though single readings can be large; an effect the other way counts as inactive or inconclusive; note: nearly all actives have a fitted effect of over 15% in size; note: potency is the fitted concentration of half-maximal effect; for activation: % is set by controls: 0 for no effect and ±100 for the full control effect)
Procedure, shortened: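 HEK293T cells carrying a luciferase reporter tagged to ATAD5 were exposed to compound or DMSO vehicle for 16 hr at 37C, 5% CO2. Amplite was added, and after 30 min at room temperature luciferase activity was read as a marker of ATAD5 induction.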

[9] = qHTS assay to test for compound auto fluorescence at 460 nm (blue) in HEK293 cell free culture (AID 720681; active = well fitted curve in the direction sought with a large enough effect in the repeat runs; inconclusive = weak or mixed curves; inactive = no such curve, though single readings can be large; an effect the other way counts as inactive or inconclusive; note: potency is the fitted concentration of half-maximal effect)
Procedure, shortened: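 Blue fluorescence (Ex 405/Em 460 nm, triamterene-equivalent) was read immediately after pin transfer of compound or DMSO into medium (DMEM, 10% FBS) without cells.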

[10] = qHTS assay for small molecule disruptors of the mitochondrial membrane potential - cell viability (AID 720634); note: nearly all actives have a fitted effect of over 20% in size; note: potency is the fitted concentration of half-maximal effect
Procedure, shortened: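 HepG2 cells seeded overnight at 37 C, then exposed to compound or DMSO for 1 hr at 37 C, 5% CO2. m-MPI dye added, then CellTiter-Glo for 30 min at room temperature; viability read as ATP luminescence.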

[11] = qHTS assay to test for compound auto fluorescence at 460 nm (blue) in HEK293 cells (AID 720678; active = well fitted curve in the direction sought with a large enough effect in the repeat runs; inconclusive = weak or mixed curves; inactive = no such curve, though single readings can be large; an effect the other way counts as inactive or inconclusive; note: % is set by controls: 0 for no effect and ±100 for the full control effect)
Procedure, shortened: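 Cells were seeded and left to adhere for 4-5 hr at 37C. Compounds were then pin-transferred. After an overnight incubation at 37C under 5% CO2, intrinsic fluorescence at 405/460 nm was measured and referenced to triamterene.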

[12] = molecular target: Aryl hydrocarbon receptor (Homo sapiens) (UniProt P35869); assay: qHTS assay to identify small molecule that activate the aryl hydrocarbon receptor (AhR) signaling pathway (AID 743085; active = well fitted curve in the direction sought with a large enough effect in the repeat runs; inconclusive = weak or mixed curves; inactive = no such curve, though single readings can be large; an effect the other way counts as inactive or inconclusive; note: potency is the fitted concentration of half-maximal effect; nearly all actives have a fitted effect of over 15% in size)
Procedure, shortened: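 Compounds were tested in HepG2 hepatocellular carcinoma cells harbouring a stably integrated luciferase gene under control of 20 DREs. Increased reporter signal after 24 h treatment at 37C was taken as AhR activation.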

[13] = molecular target: Androgen receptor (Homo sapiens) (UniProt P10275); assay: qHTS assay to identify small molecule antagonists of the androgen receptor (AR) signaling pathway using the MDA cell line (AID 743042; active = well fitted curve in the direction sought with a large enough effect in the repeat runs; inconclusive = weak or mixed curves; inactive = no such curve, though single readings can be large; an effect the other way counts as inactive or inconclusive; note: potency is the fitted concentration of half-maximal effect; nearly all actives have a fitted effect of over 55% in size)
Procedure, shortened: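 Antagonist mode: compounds plus R1881 agonist added to MDA-kb2 AR-luc cells, incubated 16 h at 37C. Luciferase reporter luminescence quantified, with multiplexed CellTiter-Fluor readout for cell viability.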
Tags give direction and shape of the fitted curve or compound fluorescence and quenching.

Sequence of UniProt P10275 (P10275 whole entry, looked up): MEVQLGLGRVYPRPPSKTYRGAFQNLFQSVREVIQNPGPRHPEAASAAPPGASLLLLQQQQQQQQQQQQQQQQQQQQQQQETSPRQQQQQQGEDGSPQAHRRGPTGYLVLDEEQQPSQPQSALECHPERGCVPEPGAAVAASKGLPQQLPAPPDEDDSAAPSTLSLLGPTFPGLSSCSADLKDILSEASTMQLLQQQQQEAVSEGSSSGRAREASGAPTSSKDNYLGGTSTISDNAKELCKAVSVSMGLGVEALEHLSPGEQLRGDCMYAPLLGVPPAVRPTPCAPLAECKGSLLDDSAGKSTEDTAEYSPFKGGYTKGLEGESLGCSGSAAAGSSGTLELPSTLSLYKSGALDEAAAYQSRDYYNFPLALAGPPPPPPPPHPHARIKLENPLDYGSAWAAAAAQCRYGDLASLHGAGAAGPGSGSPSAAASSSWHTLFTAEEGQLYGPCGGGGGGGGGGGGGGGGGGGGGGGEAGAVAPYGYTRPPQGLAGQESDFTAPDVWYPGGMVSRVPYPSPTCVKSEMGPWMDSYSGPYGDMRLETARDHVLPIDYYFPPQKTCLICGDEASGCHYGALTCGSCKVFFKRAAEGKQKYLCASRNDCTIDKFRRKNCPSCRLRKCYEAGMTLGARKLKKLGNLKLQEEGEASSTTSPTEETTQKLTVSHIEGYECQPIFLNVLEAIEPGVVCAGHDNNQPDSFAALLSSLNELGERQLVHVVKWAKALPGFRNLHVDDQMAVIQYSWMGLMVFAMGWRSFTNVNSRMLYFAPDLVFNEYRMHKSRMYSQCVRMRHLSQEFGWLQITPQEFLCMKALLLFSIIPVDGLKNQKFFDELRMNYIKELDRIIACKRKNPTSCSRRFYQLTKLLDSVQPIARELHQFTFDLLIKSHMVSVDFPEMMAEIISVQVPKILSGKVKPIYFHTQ
Sequence of UniProt P03372 (P03372 whole entry, looked up): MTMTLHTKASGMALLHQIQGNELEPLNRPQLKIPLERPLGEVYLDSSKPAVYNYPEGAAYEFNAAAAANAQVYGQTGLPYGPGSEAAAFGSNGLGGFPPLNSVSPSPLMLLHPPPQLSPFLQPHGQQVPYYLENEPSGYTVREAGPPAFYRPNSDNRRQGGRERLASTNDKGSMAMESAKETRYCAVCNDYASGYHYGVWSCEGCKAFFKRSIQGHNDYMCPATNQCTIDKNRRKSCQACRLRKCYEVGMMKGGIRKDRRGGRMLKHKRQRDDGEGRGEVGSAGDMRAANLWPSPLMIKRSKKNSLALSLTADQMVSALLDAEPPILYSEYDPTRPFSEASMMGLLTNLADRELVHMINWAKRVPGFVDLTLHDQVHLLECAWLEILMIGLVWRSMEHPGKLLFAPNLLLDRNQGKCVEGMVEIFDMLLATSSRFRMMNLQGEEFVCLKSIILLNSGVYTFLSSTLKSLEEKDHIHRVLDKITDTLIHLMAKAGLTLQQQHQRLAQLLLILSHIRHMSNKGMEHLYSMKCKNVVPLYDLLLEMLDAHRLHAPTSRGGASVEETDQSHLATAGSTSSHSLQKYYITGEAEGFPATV
Sequence of UniProt P11511 (P11511 whole entry, looked up): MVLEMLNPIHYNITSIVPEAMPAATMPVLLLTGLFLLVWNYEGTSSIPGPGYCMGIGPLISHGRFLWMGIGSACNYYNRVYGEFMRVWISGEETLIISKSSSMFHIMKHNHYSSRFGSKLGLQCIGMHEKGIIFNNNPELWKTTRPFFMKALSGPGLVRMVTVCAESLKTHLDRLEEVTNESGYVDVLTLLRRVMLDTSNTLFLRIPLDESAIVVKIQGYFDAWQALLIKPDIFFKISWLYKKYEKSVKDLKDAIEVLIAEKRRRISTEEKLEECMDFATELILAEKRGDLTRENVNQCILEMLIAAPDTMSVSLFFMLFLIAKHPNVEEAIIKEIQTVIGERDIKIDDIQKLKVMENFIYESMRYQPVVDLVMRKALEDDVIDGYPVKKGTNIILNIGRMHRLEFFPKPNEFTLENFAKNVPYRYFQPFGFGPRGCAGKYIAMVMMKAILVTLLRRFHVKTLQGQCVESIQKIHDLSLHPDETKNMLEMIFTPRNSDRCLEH
Sequence of UniProt P35869 (P35869 whole entry, looked up): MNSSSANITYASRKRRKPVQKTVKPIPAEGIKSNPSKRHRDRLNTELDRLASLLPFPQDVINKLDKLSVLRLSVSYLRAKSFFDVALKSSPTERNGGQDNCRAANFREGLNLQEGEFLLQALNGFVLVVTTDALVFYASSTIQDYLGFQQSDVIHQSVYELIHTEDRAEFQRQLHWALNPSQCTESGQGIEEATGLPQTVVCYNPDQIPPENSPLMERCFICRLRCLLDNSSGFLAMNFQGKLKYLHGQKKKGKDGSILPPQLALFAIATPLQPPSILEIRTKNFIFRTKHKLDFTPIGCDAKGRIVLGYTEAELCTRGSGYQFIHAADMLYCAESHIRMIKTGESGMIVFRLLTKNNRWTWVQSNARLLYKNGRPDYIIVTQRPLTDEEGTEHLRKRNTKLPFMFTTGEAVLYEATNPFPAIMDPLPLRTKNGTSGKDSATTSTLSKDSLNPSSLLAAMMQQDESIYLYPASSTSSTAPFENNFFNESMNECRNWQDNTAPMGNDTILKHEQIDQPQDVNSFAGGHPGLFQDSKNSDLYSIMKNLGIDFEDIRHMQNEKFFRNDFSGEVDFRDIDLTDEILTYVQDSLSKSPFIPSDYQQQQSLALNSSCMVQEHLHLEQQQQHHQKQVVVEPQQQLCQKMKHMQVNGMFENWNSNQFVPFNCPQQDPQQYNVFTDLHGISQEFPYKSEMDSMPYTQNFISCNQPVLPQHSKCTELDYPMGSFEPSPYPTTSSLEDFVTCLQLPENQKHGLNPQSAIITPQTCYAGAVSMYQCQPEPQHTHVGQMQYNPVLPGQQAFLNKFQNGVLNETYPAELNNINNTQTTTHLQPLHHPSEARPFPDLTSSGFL

CNc1cc(OC)c(C(=O)N[C@H]2CCN(Cc3ccccc3)[C@H]2C)cc1Cl
Potency [1]: inactive

N#CC(c1ccc(Cl)cc1)c1c(Cl)cc(-n2ncc(=O)[nH]c2=O)cc1Cl (centres undefined)
Potency [2]: inconclusive: 33.5 µM [falling, partial curve, poor fit] | activity change, negative = inhibition [3]: inconclusive: -66.2% | Potency [4]: inconclusive: 8.49 µM [rising, partial curve, poor fit] | Potency [5]: active: 3.76 µM

N[C@H](CC(=O)O)C(=O)O
Potency [2]: inactive

NCCCC[C@H](NC(=O)[C@@H]1CCCN1C(=O)[C@@H]1CSSC[C@H](N)C(=O)N[C@@H](Cc2ccc(O)cc2)C(=O)N[C@@H](Cc2ccccc2)C(=O)N[C@@H](CCC(N)=O)C(=O)N[C@@H](CC(N)=O)C(=O)N1)C(=O)NCC(N)=O
Potency [6]: inactive

Cc1c(N)nc([C@H](CC(N)=O)NC[C@H](N)C(N)=O)nc1C(=O)N[C@H](C(=O)N[C@H](C)[C@@H](O)[C@H](C)C(=O)N[C@H](C(=O)NCCc1nc(-c2nc(C(=O)NCCCCN=C(N)N)cs2)cs1)[C@@H](C)O)[C@@H](O[C@@H]1O[C@@H](CO)[C@@H](O)[C@H](O)[C@@H]1O[C@H]1O[C@H](CO)[C@@H](O)[C@H](OC(N)=O)[C@@H]1O)c1cnc[nH]1
Potency [6]: inconclusive: 4.73 µM [cytotoxic, partial curve, poor fit] | Potency [1]: inconclusive: 2.13 µM [activator, partial curve] and inactive | Potency (Aromatase (Homo sapiens)): inconclusive: 1.06 µM [inhibitor, full curve] | Potency [7]: inactive

Cc1cc2nc3c(=O)[nH]c(=O)nc-3n(C[C@H](O)[C@H](O)[C@H](O)COP(=O)(O)OP(=O)(O)OC[C@H]3O[C@@H](n4cnc5c(N)ncnc54)[C@H](O)[C@@H]3O)c2cc1C
Potency [8]: inconclusive: 33.5 µM [activator, partial curve, poor fit] | Potency [9]: inconclusive: 17.8 µM [rising, partial curve, poor fit] | Potency [4]: inconclusive: 26.8 µM [rising, single point] | Potency [1]: inactive | Potency (Aromatase (Homo sapiens)): inactive | Potency [7]: inconclusive: 29.8 µM [rising, partial curve]

Cc1cc(Nc2ccccc2C(=O)O)ccc1Cl
Potency [8]: inconclusive: 26.6 µM [activator, partial curve, poor fit] | Potency [3]: inconclusive: 23.9 µM [rising, single point] | Potency [4]: inconclusive: 23.9 µM [partial curve, poor fit] | Potency [7]: inconclusive: 26.6 µM [rising, partial curve, poor fit]

CN1CCc2c(c3ccccc3n2Cc2ccccc2)C1
Potency [8]: inactive | Potency [5]: inconclusive: 9.02 µM [inhibitor, partial curve]

CC[C@@H](C(=O)[C@@H](C)[C@@H](O)[C@H](C)CCc1ccc(C)c(O)c1C(=O)O)[C@H]1O[C@](CC)([C@H]2CC[C@](O)(CC)[C@H](C)O2)C[C@@H]1C
Potency [6]: active: 26.6 µM | Potency [10]: active: 5.96 µM | Potency [3]: active: 15.1 µM | Potency [4]: inconclusive: 13.4 µM [falling, partial curve, poor fit] | Potency [1]: inactive

CCCCCCCCCCCCCCCCOCCOCCOCCOCCOCCOCCOCCOCCOCCOCCOCCOCCOCCOCCOCCOCCOCCOCCOCCOCCO
Potency [2]: inconclusive: 33.5 µM [falling, single point] | Potency [10]: inconclusive: 29.8 µM [cytotoxic] | Potency [11]: inactive | Potency [1]: inconclusive: 21.3 µM [falling, partial curve] | Potency (Aromatase (Homo sapiens)): inconclusive: 33.5 µM [inhibitor, single point] | Potency [7]: inconclusive: 33.5 µM [falling, single point]

Nc1ncnc(Nc2ccc(Cl)cc2)n1
Potency [8]: inconclusive: 33.5 µM [activator] | Potency [10]: inconclusive: 33.5 µM [cytotoxic, partial curve, poor fit] | Potency [5]: inactive | Potency [7]: inconclusive: 0.0094 µM [rising, full curve, poor fit]

COC1[C@@H](O[C@@H]2O[C@H](C)[C@@H](O[C@H]3C[C@@](C)(O)[C@H](OC(=O)CC(C)C)[C@H](C)O3)[C@H](N(C)C)[C@H]2O)[C@@H](CC=O)C[C@@H](C)[C@@H](O)/C=C/C=C/C[C@@H](C)OC(=O)C[C@H]1OC(C)=O (some centres undefined)
Potency [6]: inactive

CC[C@@H](C(=O)O)[C@@H]1O[C@@H]([C@@H](C)[C@H](O)[C@H](C)C(=O)[C@H](CC)[C@H]2O[C@]3(C=C[C@@H](O)[C@]4(CC[C@@](C)([C@H]5CC[C@](O)(CC)[C@H](C)O5)O4)O3)[C@H](C)C[C@@H]2C)[C@@H](C)C[C@@H]1C
Potency [2]: active: 1.88 µM | Potency [5]: active: 0.0944 µM

CCC1OC(=O)C[C@@H](O)[C@H](C)[C@@H](O[C@@H]2O[C@H](C)C[C@H](N(C)C)[C@H]2O)[C@@H](CC=O)C[C@@H](C)C(=O)/C=C/[C@]2(C)OC2C1C (some centres undefined)
Potency [8]: inconclusive: 37.6 µM [activator, partial curve, poor fit] | Potency [2]: inconclusive: 16.8 µM [falling, partial curve, poor fit] | Potency [3]: inconclusive: 26.8 µM and inconclusive: 23.9 µM

COc1cc(-c2ccc(-[n+]3nc(-c4ccccc4)nn3-c3ccc([N+](=O)[O-])cc3)c(OC)c2)ccc1-[n+]1nc(-c2ccccc2)nn1-c1ccc([N+](=O)[O-])cc1
Potency [8]: active: 5.96 µM | Potency [10]: inactive | Potency [3]: inconclusive: 12 µM [falling, full curve] | Potency [4]: inconclusive: 6.74 µM [cytotoxic, full curve] | Potency [1]: inconclusive: 5.35 µM [cytotoxic, full curve] | Potency [12]: inconclusive: 2.98 µM [activator, full curve, poor fit]

OCC(S)CS (centres undefined)
Potency [2]: inconclusive: 18.8 µM [falling, partial curve] | activation [4]: inconclusive: 8.53% | Potency [13]: inconclusive: 26.6 µM [inhibitor, partial curve]

CCCCCCCCCCCCCC[n+]1ccc(C)cc1
Potency [2]: inconclusive: 13.3 µM [falling, partial curve, poor fit] | Potency [10]: inconclusive: 33.5 µM [cytotoxic, partial curve, poor fit] | Potency [3]: active: 9.52 µM | Potency [7]: inconclusive: 15 µM [falling, partial curve]

CCC(=O)O[C@H]1CC[C@H]2[C@@H]3CCc4cc(O)ccc4[C@H]3CC[C@]12C
Potency [6]: inconclusive: 33.5 µM [cytotoxic, single point] | Potency [10]: inconclusive: 33.5 µM [cytotoxic, single point] | Potency [3]: inconclusive: 0.0952 µM [falling, full curve, poor fit]

CO[C@H]1C[C@@H]2CC[C@@H](C)[C@@](O)(O2)C(=O)C(=O)N2CCCC[C@H]2C(=O)O[C@H]([C@H](C)C[C@@H]2CC[C@@H](O)[C@H](OC)C2)CC(=O)[C@H](C)C=C(C)[C@@H](O)[C@@H](OC)C(=O)[C@H](C)C[C@H](C)/C=C/C=CC=C1C
Potency [6]: active: 21.1 µM and active: 23.7 µM | Potency [2]: active: 29.8 µM and active: 26.6 µM | Potency [3]: active: 10.7 µM and active: 26.8 µM | Potency [13]: active: 21.1 µM and active: 23.7 µM | Potency [5]: inconclusive: 9.44 µM [inhibitor, partial curve, poor fit] | Potency [1]: inconclusive: 21.3 µM [fluorescent, partial curve] | Potency (Aromatase (Homo sapiens)): active: 2.11 µM and inconclusive: 106 nM [inhibitor, partial curve, poor fit]

CO[C@H]1C=CO[C@@]2(C)Oc3c(C)c(O)c4c(O)c(c(/C=N/N5CCN(C6CCCC6)CC5)c(O)c4c3C2=O)NC(=O)/C(C)=C\C=C[C@H](C)[C@H](O)[C@@H](C)[C@@H](O)[C@@H](C)[C@H](OC(C)=O)[C@@H]1C
Potency [2]: active: 21.1 µM | Potency [10]: inconclusive: 33.5 µM [cytotoxic, partial curve, poor fit] | Potency [7]: active: 26.6 µM

CO[C@H]1C[C@H](O[C@H]2[C@H](C)O[C@@H](O[C@@H]3/C(C)=C/C[C@@H]4C[C@@H](C[C@]5(C=C[C@H](C)[C@@H](C6CCCCC6)O5)O4)OC(=O)[C@@H]4C=C(C)[C@@H](O)[C@H]5OC/C(=C\C=C\[C@@H]3C)[C@]54O)C[C@@H]2OC)O[C@@H](C)[C@@H]1O
Potency [6]: active: 6.68 µM | Potency [10]: inconclusive: 8.41 µM [cytotoxic, partial curve, poor fit]

Nc1ncnc2c1ncn2[C@@H]1O[C@H](COP(=O)(O)OP(=O)(O)OP(=O)(O)O)[C@@H](O)[C@H]1O
Potency [8]: inconclusive: 15 µM [activator, partial curve, poor fit] | Potency [2]: inactive
